This is one part of the list. One pool of 16,384 single-stranded DNAs met each Rep nickase domain in vitro (1 h at 37 °C, 3 µM enzyme); the outer parts of the 90-letter strands are left off. A value is the log2 ratio of uncut reads to the pool without enzyme; more negative means more cut, near 0 not cut, and no call is made. Counts are relative to all reads; where an enzyme cuts many sequences, the uncut ones exceed 0.

For the assay, the system named is T1, Rep nickase domain of tomato golden mosaic virus.
T1 sequence (protein, residues 1-124, tag omitted): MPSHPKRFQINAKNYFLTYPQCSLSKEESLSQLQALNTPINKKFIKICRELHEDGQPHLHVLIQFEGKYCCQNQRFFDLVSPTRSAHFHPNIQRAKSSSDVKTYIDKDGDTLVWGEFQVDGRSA
Nature of the assay: uncleaved DNA left, log2 of reads against the no-enzyme library (log2 ratio); higher = less cleavage (more negative = more Rep cleavage of the k-mer); sequences stand for … in CTCGTCCG…ACCGGAGA
Here is the method: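 A pool of 90-nt single-stranded DNAs with seven random bases just before the constant AC of the nick site (name = the seven bases) was cut by 3 µM recombinant His6-SUMO-tagged Rep nickase domain (300 nM DNA, 50 mM HEPES pH 8.0, 50 mM NaCl, 1 mM MnCl2, 1 h, 37 °C, three replicates). Uncut DNA was amplified and sequenced.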
For the sequence AGATAGC, the “uncleaved DNA left (log2)” value stood at 0.101. With GCGCCTA, the “uncleaved DNA left (log2)” value is -0.021.

On to ATACGAT, for which the “uncleaved DNA left (log2)” value is -0.00145. In the case of TTGGAAT, the “uncleaved DNA left (log2)” value was -0.0228.

With CCGGCCT, the “uncleaved DNA left (log2)” value turned out to be 0.0122. Take CTTATAG: the “uncleaved DNA left (log2)” value turned out to be 0.0733. To GTAGCTT belongs 0.0525.

Turning to ACGGCGA, the “uncleaved DNA left (log2)” value turned out to be 0.0915. The value for CTTCTTC was -0.234.

As for CGACAAT, the “uncleaved DNA left (log2)” value was -0.112. For GGCTTCT, the “uncleaved DNA left (log2)” value was -0.228. To TATGCTG belongs -0.0274; to ACGGAGT, 0.0239.

With ACCCGTC, the “uncleaved DNA left (log2)” value is -0.153. The value for AGAGAGG was 0.093. As to GCGAAGA, the “uncleaved DNA left (log2)” value amounted to 0.024. In the case of GTATGGT, the “uncleaved DNA left (log2)” value came to 0.0702. With GAAATAG, the “uncleaved DNA left (log2)” value was determined as 0.0872. The value for TTGATCA was 0.0338. To TCTAGTT belongs 0.0415. The value for ACTAAGC was -0.0151; that for GTATCAA was 0.0865; that for TCTGGGC was -0.0919.

Take TGACGCT: the “uncleaved DNA left (log2)” value was -0.122. Take ATGACAC: the “uncleaved DNA left (log2)” value is -0.18. Regarding TATGCGT, the “uncleaved DNA left (log2)” value is -0.209. For TAGACAA, the “uncleaved DNA left (log2)” value was 0.0613. The value for TGCCCTC was -0.165; that for ATGTAAA was 0.167; that for CTCCACG was 0.0374. The value for GTGTTAT was 0.024; that for AACGCGT was -0.0655; that for GCGGCTA was 0.137. The value for TCATTGT was -0.108. Consider TGTATAA, for which the “uncleaved DNA left (log2)” value is -0.0066. To TTGCATA belongs 0.0398; to CGGCTTA, 0.00105. The value for GGGCCAA was 0.0036; that for CTAAAGA was -0.0471; that for CAGCTTC was -0.043.

The values are drawn from the supplement of paper PMC7826260.
